Source: PubChem BioAssay AID1745845 (National Center for Advancing Translational Sciences (NCATS), 2022)
Hit rate of the full screen: of about 360,000 compounds, about 2,600 (0.72%) were called active. The inconclusive results got no clear call from the source; some entries with a clear call stand among them for comparison. Calls come from the whole dose curve; as a rule, active = well fitted inhibition curve with a large enough effect; inconclusive = small, poorly fitted or top-dose-only effect; inactive = no such curve, though single readings can be large or run the other way. Where the call is inconclusive, the potency comes from a doubtful curve fit.

Assay: Primary qHTS for Inhibitors of ATXN expression; note: nearly all actives have a fitted effect of over 55% in size
Settings: HEK-293 ATXN2-luciferase reporter, luminescence, 24 h; activity change, negative = inhibition: at 57 µM (top of the series)
In short: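 qHTS (up to 57 uM final) was run with 24 h compound exposure of reporter cells at 37 °C. Each well was multiplexed: SteadyGlo luminescence measured ATXN2-luciferase expression after a fluorogenic Gly-Phe-AFC viability readout (25 uM final).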
% is set by controls: 0 for no effect and ±100 for the full control effect; potency is the fitted concentration of half-maximal effect; tags give direction and shape of the fitted curve.

For `Cn1c(=O)c(C(=O)NNC(=O)c2cccc(Cl)c2)c(O)c2ccccc21`, which Potency is on record?
Its Potency is inconclusive: 15.8 µM [inhibitor, partial curve].

Which Potency does the source give for `COC(=O)c1ccc(-c2csc(NC(=O)c3ccc(S(=O)(=O)N4CCc5ccccc5C4)cc3)n2)cc1` here?
The Potency was inconclusive: 17.8 µM [inhibitor, partial curve, poor fit].

Which Potency does the source give for `Oc1ccc(/C=N/Nc2nc(N3CCCCCC3)nc(N3CCCCCC3)n2)c(O)c1` here?
The Potency was inconclusive: 37.7 µM [inhibitor, single point].

For `COC(=O)C1=C(C)NC(C)=C(C(=O)OCCN2CCN(C(c3ccccc3)c3ccccc3)CC2)C1c1cccc([N+](=O)[O-])c1` (stereo unspecified), which Potency is on record?
The Potency was active: 14.1 µM.

For `CCC(=O)Oc1ccc2c(C)cc(=O)oc2c1C`, which “activity change, negative = inhibition” value is on record?
Its value is inactive: -6.16%.

Which “activity change, negative = inhibition” value does the source give for `COc1ccc(NC(=O)CN2CCCN(S(=O)(=O)c3ccc(F)cc3)CC2)cc1` here?
Its value is inactive: -21.5%.

For `CCOC(=O)c1sc(NC(=O)c2cc(-c3ccc(F)cc3)on2)c(C(=O)OCC)c1C`, which “activity change, negative = inhibition” value is on record?
Its value is inactive: 11.1%.

With `Cc1c(O)ccc(-c2[nH]ncc2-c2nc3ccccc3s2)c1O` as the compound, how does the “activity change, negative = inhibition” value read?
The value was inactive: -10.7%.

For `CCCCCCCCSc1nnc(CSc2nc3nc(C)cc(C)n3n2)o1`, which “activity change, negative = inhibition” value is on record?
The value was inactive: -28.1%.

Which Potency does the source give for `CC(C)N(C(=O)Nc1ccc2nsnc2c1)C(C)C` here?
The Potency was inconclusive: 4.74 µM [inhibitor, partial curve, poor fit].

Which “activity change, negative = inhibition” value does the source give for `CCc1ccc(-n2nc3ccc(NC(=O)c4ccc(C#N)cc4F)cc3n2)cc1` here?
Its value is inactive: 7.56%.

With `COc1ccc(C(=O)/C=C/c2ccsc2)cc1CSCC(=O)O` as the compound, how does the “activity change, negative = inhibition” value read?
Its value is inactive: -1.52%.

With `C=CCc1cccc(/C=N/NC(=O)c2ccccc2OC)c1O` as the compound, how does the Potency read?
Its Potency is inconclusive: 17.8 µM [inhibitor, partial curve, poor fit].

For `CCc1ccc(Nc2nc(N)nc(CSc3nc4ccccc4s3)n2)cc1`, which Potency is on record?
Its Potency is “inactive”.

For `CCOc1ccc(OCC)c(S(=O)(=O)NCCOC23CC4CC(CC(C4)C2)C3)c1`, which Potency is on record?
Its Potency is inconclusive: 14.1 µM [inhibitor, partial curve].

With `CC1CN(S(=O)(=O)c2cccc(C(=O)N(Cc3nnc(-c4ccccc4Cl)o3)C3CC3)c2)CC(C)O1` (stereo unspecified) as the compound, how does the Potency read?
The Potency was inconclusive: 2.24 µM [inhibitor, full curve].

For `CC(=O)c1cccc(NC(c2ccc(F)cc2)c2nnc(-c3ccccc3)o2)c1` (stereo unspecified), which Potency is on record?
The Potency was inconclusive: 39.8 µM [inhibitor, single point].

With `O=[N+]([O-])c1cc(C(F)(F)F)cc([N+](=O)[O-])c1NCCNC(=S)Nc1ccc(Cl)c(Cl)c1` as the compound, how does the Potency read?
Its Potency is inconclusive: 31.6 µM [inhibitor, single point].

For `Cc1nnsc1C(=O)N/N=C/c1ccc2ccccc2c1O`, which Potency is on record?
Its Potency is inconclusive: 3.98 µM [inhibitor, partial curve, poor fit].

With `CCCCSc1nc(C)cc(SCC(=O)N/N=C/c2cccc(OC)c2O)n1` as the compound, how does the Potency read?
Its Potency is active: 7.08 µM.

With `COc1ccc(C2N3CC4(C)CN2CC(C)(C3)C4)cc1OC` (stereo unspecified) as the compound, how does the Potency read?
The Potency was inconclusive: 31.6 µM [inhibitor, partial curve, poor fit].

For `CC1(C)[C@@H]2CC[C@@]1(C)C(=O)C2`, which “activity change, negative = inhibition” value is on record?
The value was inactive: -2.89%.

With `NC(Cc1ccc(C(F)(F)F)cc1)c1csc(NC(=O)Nc2ccccc2)n1` (stereo unspecified) as the compound, how does the Potency read?
Its Potency is inconclusive: 35.5 µM [inhibitor, single point].

With `CCOC(=O)C1CCCN(Cc2nc(N)nc(Nc3ccccc3)n2)C1` (stereo unspecified) as the compound, how does the “activity change, negative = inhibition” value read?
The value was inactive: -6.49%.

With `Cc1cc2c(c(=O)o1)C(C(C)C)C(C#N)=C(N)O2` (stereo unspecified) as the compound, how does the “activity change, negative = inhibition” value read?
The value was inactive: 3.76%.

With `Nc1c(Cl)ncnc1N/N=C/c1ccc2ccccc2n1` as the compound, how does the Potency read?
The Potency was active: 7.94 µM.

For `CCCCN(CC)Cc1ccc(CNC(=O)Nc2ccccc2)o1`, which “activity change, negative = inhibition” value is on record?
The value was inactive: -16.8%.

For `CC(C)C(=O)NC(c1ccccc1)c1cc([N+](=O)[O-])c2cccnc2c1O` (stereo unspecified), which Potency is on record?
The Potency was inconclusive: 25.1 µM [inhibitor, partial curve, poor fit].

With `COc1cccc(/C=N/Nc2ncnc(N)c2[N+](=O)[O-])c1OC` as the compound, how does the Potency read?
Its Potency is active: 8.91 µM.

With `Cc1ccccc1Cn1c(=O)n(CCc2ccccc2)c(=O)c2ccccc21` as the compound, how does the “activity change, negative = inhibition” value read?
Its value is inactive: 8.2%.

For `O=C(Nc1ccc(Oc2ccccc2)cc1)c1csc([C@H]2C[C@H](O)[C@@H](CO)O2)n1`, which Potency is on record?
The Potency was inconclusive: 2 µM [inhibitor, partial curve, poor fit].

With `CCOC(=O)C1=C(Cc2ccc(OC)cc2)C(=O)c2ccccc2C1=O` as the compound, how does the Potency read?
The Potency was inconclusive: 39.8 µM [inhibitor, single point].

Which “activity change, negative = inhibition” value does the source give for `CN(Cc1ccc(Cl)cc1)C(=O)CNC(=O)C12CC3CC(CC(C3)C1)C2` here?
Its value is inactive: -8.85%.

For `CCOc1ccccc1CC1C(=O)Nc2ccc(Br)cc21` (stereo unspecified), which Potency is on record?
Its Potency is inconclusive: 25.1 µM [inhibitor, single point].

For `Cc1ccc(C)c(OCCCC(=O)Nc2nccs2)c1`, which Potency is on record?
Its Potency is inconclusive: 31.6 µM [inhibitor, single point].

For `ClCCn1cnc2c(SCc3ccccc3)ncnc21`, which “activity change, negative = inhibition” value is on record?
The value was inactive: 125%.

Which Potency does the source give for `Cc1cc(C)cc(NC(=O)/C(C#N)=C/c2cn(CC(=O)NCc3ccco3)c3ccccc23)c1` here?
Its Potency is inconclusive: 15.8 µM [inhibitor, partial curve, poor fit].

For `Cc1cc(C2=NNC(=NC3CC3)SC2)c(C)n1-c1ccccc1F`, which Potency is on record?
The Potency was active: 0.282 µM.

With `CCc1nc2ccc(C(=O)Nc3cc(-c4ccccc4)ccc3OC)cn2c1N(C)CCC(C)C` as the compound, how does the Potency read?
Its Potency is inconclusive: 20 µM [inhibitor, single point].

Which Potency does the source give for `CN[C@@H]1CN(c2ccc3c(=O)c(C(=O)O)cn(-c4nccs4)c3n2)C[C@@H]1OC` here?
Its Potency is active: 10.6 µM.

For `CC[C@@]1(c2ccccc2OC)ON(c2ccccc2C(F)(F)F)C1=O`, which Potency is on record?
The Potency was active: 22.4 µM.

For `CC1=NN(c2ccccc2)C(=O)/C1=C/C=C/C=C/N(C)C`, which Potency is on record?
The Potency was inconclusive: 0.474 µM [inhibitor, full curve, poor fit].

Which “activity change, negative = inhibition” value does the source give for `CCOc1cc(C(C(=O)NCC2CCCO2)N(C(=O)Cn2nnc3ccccc32)c2ccc(C(C)=O)cc2)ccc1O` (stereo unspecified) here?
The value was inactive: 5.3%.

With `Cc1c(NC(=S)N/N=C\c2ccccc2O)c(=O)n(-c2ccccc2)n1C` as the compound, how does the “activity change, negative = inhibition” value read?
The value was inactive: -34.9%.

Which Potency does the source give for `c1ccc2c(N3CCCCC3)nc(N3CCCC3)nc2c1` here?
Its Potency is inconclusive: 22.4 µM [inhibitor, partial curve, poor fit].

Which Potency does the source give for `CC(=O)Oc1ccc(OC(C)=O)c(SCCCCCCl)c1` here?
Its Potency is inconclusive: 37.7 µM [inhibitor, single point].

Which Potency does the source give for `CC1(C)CC(=O)C=C(c2ccc(-c3cnc4ccccc4c3)cc2)C1=O` here?
The Potency was inconclusive: 10 µM [inhibitor, partial curve, poor fit].

Which “activity change, negative = inhibition” value does the source give for `CN1CCN(CC(O)COc2ccc(Cl)cc2)CC1` (stereo unspecified) here?
Its value is inactive: -14.6%.

Which “activity change, negative = inhibition” value does the source give for `O=C(CNC(=O)c1ccccc1Cl)c1ccccc1` here?
Its value is inactive: -7.16%.

For `CCOc1cc(C2c3c(-c4ccc(Br)cc4)n[nH]c3C(=O)N2c2ccc(Cl)cc2)ccc1O` (stereo unspecified), which Potency is on record?
Its Potency is inconclusive: 39.8 µM [inhibitor, single point].

For `COc1ccc(CNC(=O)CCS(=O)(=O)c2ccc3c(c2)oc(=O)n3C)cc1`, which Potency is on record?
The Potency was “inactive”.

For `C=CCC[C@H](Cc1ccc(F)cc1)C(=O)OC[C@@H](Cc1c[nH]c2ccccc12)NC(=O)[C@@H](CC=C)CC(=O)N[C@H](CO)Cc1ccccc1`, which “activity change, negative = inhibition” value is on record?
The value was inactive: -16.8%.

For `CCSc1ncc(Cl)c(C(=O)Nc2nc3ccc(OC)cc3s2)n1`, which “activity change, negative = inhibition” value is on record?
The value was inactive: 8.49%.

For `O=C(Nc1cccc(Cl)c1)OCCN1CCN(Cc2ccccc2)CCC1=O`, which Potency is on record?
Its Potency is inconclusive: 39.8 µM [inhibitor, partial curve, poor fit].

Which Potency does the source give for `Cc1ccc(NS(=O)(=O)c2ccc(N3CCN(c4ccc(O)cc4)CC3)c([N+](=O)[O-])c2)c(C)c1` here?
Its Potency is inconclusive: 33.6 µM [inhibitor, single point].

With `CC(=O)Nc1ccc(N(C(=O)c2ccco2)C(C(=O)NC2CCCCC2)c2ccccc2)cc1` (stereo unspecified) as the compound, how does the “activity change, negative = inhibition” value read?
Its value is inactive: 22.4%.

Which Potency does the source give for `COc1cccc(CN(C)C[C@@H]2OCc3ccccc3-c3c(n(C)c4ccccc34)C(=O)N([C@@H](C)CO)C[C@H]2C)c1` here?
Its Potency is inconclusive: 35.5 µM [inhibitor, single point].

Which Potency does the source give for `CC(C)(C)C(=O)Oc1ccc(S(=O)(=O)Nc2ccccc2C(=O)NCC(=O)O)cc1` here?
Its Potency is “inactive”.

Which Potency does the source give for `c1ccc(-c2cc3nc(NCc4cccs4)nc(NCc4ccc5occc5c4)c3s2)cc1` here?
The Potency was inconclusive: 39.8 µM [inhibitor, single point].

Which Potency does the source give for `CCOC(=O)c1ccccc1NC(=O)CSc1ccc(-c2ccccn2)nn1` here?
The Potency was active: 3.55 µM.

For `Cc1ccc(C(=O)CSC2=C(C#N)C(c3ccco3)C3=C(CCCC3=O)N2)cc1` (stereo unspecified), which “activity change, negative = inhibition” value is on record?
Its value is inactive: 16%.

With `CC(C)(C)Cc1c(-c2ccc(C#N)cc2)nc2c(Cl)cc(C(F)(F)F)cn12` as the compound, how does the Potency read?
The Potency was inconclusive: 39.8 µM [inhibitor, single point].

For `Oc1ccccc1CN1CCC(C(O)(c2ccccc2)c2ccccc2)CC1`, which “activity change, negative = inhibition” value is on record?
The value was inactive: 4.41%.

With `Cc1sc(NC(=O)c2ccco2)c(C(c2cccnc2)N2CCCC2)c1C` (stereo unspecified) as the compound, how does the “activity change, negative = inhibition” value read?
Its value is inactive: 21.1%.

Which Potency does the source give for `CC(=O)c1sc(NC(=O)c2cc(-c3ccccc3)nn2-c2ccccc2)nc1C` here?
The Potency was inconclusive: 25.1 µM [inhibitor, single point].

Which Potency does the source give for `COc1ccc2[nH]cc(C(=O)CCl)c2c1` here?
The Potency was inconclusive: 22.4 µM [inhibitor, single point].

For `Cc1cc(C)cc(NS(=O)(=O)c2ccc3c(c2)CCCN3C(=O)C2CCC2)c1`, which Potency is on record?
Its Potency is inconclusive: 35.5 µM [inhibitor, single point].

Which “activity change, negative = inhibition” value does the source give for `O=c1c2ccccc2ncn1Cc1ccco1` here?
Its value is inactive: 1.66%.

With `NC(c1csc(NC(=O)Nc2ccc(OC(F)(F)F)cc2)n1)C1CCCCC1` (stereo unspecified) as the compound, how does the Potency read?
The Potency was inconclusive: 39.8 µM [inhibitor, single point].

With `CCc1nc2c(OCC(=O)c3ccc(Cl)cc3Cl)cccn2c1N(C)C(=O)c1cccs1` as the compound, how does the Potency read?
Its Potency is inconclusive: 28.2 µM [inhibitor, single point].

With `Cc1ccc(C(=O)N2CCCC(C(=O)c3ccc(Oc4ccccc4)cc3)C2)cn1` (stereo unspecified) as the compound, how does the Potency read?
The Potency was inconclusive: 14.1 µM [inhibitor, partial curve, poor fit].
